Measurements from the supplement of paper PMC10126150.
Values marked as one replicate rest on one cluster of the flow cell; about a third of the high ones do not repeat.
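Note: ATP exposure 15 min at 22 °C before imaging.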

These sequences were tested on ATP (assay: switch fluorescence ratio, 500 uM ATP over buffer (Cy3 cluster intensity, sum of 5 cycles each) (fold (ratio)); higher = stronger signal-on switching upon ATP binding; sequences stand for … in TCGTCGGCAGCGTCAGATGTGTATAAGAGACAGTTTTTTTTTTTTTTTTTTTTTTTTT…TC). Details: aptamer strand: ATP DNA aptamer (quencher-CACCTGGGGGAGTATTGCGGAGGAAGG + anchor), 100 nM annealed; ATP concentration: 500 uM; one replicate.
How it was run: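 After annealing to 100 nM quencher-labelled ATP aptamer, Cy3-labelled switching-strand clusters on a modified Illumina MiSeq flow-cell were imaged in selection buffer. A second image followed after 15 min with 500 uM ATP at 22 °C, and five such buffer/ATP cycles were done, each separated by NaOH stripping and re-annealing. The fluorescence ratio, averaged per switch-domain sequence, is summed target-cycle over summed buffer-cycle Cy3 intensity per cluster, with clusters outside 100-1000 RFU excluded.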
TGAGTTAGCC gave a switch fluorescence ratio of 1.21.
With TGAGTTCATT the switch fluorescence ratio was 0.979.
Sequence TGAGTTCGGA has a switch fluorescence ratio of 1.03.
Sequence TGATAAAGGG has a switch fluorescence ratio of 1.
TGATAAATGG showed a switch fluorescence ratio of 0.977.
In the case of TGATAACGCA, the switch fluorescence ratio is reported as 1.26.
Work on TGATAACTAT yielded a switch fluorescence ratio of 0.979.
TGATACTTAT showed a switch fluorescence ratio of 0.959.
TGATCAGGCG showed a switch fluorescence ratio of 0.988.
TGATCATAGG was tested, and the switch fluorescence ratio was 1.01.
TGATCATCAT gave a switch fluorescence ratio of 1.08.
TGATCCGATT gave a switch fluorescence ratio of 1.02.
For TGATCCTCTG, the switch fluorescence ratio was 1.
TGATCGCTAA was tested, and the switch fluorescence ratio was 1.15.
TGATCTTTGT was tested, and the switch fluorescence ratio was 1.01.
With TGATGAAGCG the switch fluorescence ratio was 0.988.
TGATGACGAA was tested, and the switch fluorescence ratio was 1.01.
Work on TGATGACTTA yielded a switch fluorescence ratio of 1.02.
For TGATGATCTC, the switch fluorescence ratio was 0.978.
For TGATGCCCTT, the switch fluorescence ratio was 1.
TGATGGAAG gave a switch fluorescence ratio of 1.03.
TGATGGGAAT showed a switch fluorescence ratio of 1.01.
With TGATGGTGTT the switch fluorescence ratio was 1.04.
Work on TGATGTAGTC yielded a switch fluorescence ratio of 1.02.
Sequence TGATGTGTAT has a switch fluorescence ratio of 1.03.
TGATTAAAGC showed a switch fluorescence ratio of 1.01.
Work on TGATTAGGCC yielded a switch fluorescence ratio of 0.989.
Sequence TGATTCAGCT has a switch fluorescence ratio of 0.959.
Sequence TGATTGATCG has a switch fluorescence ratio of 1.01.
Sequence TGATTGTAAC has a switch fluorescence ratio of 0.993.
TGATTGTGTT was tested, and the switch fluorescence ratio was 0.965.
For TGATTGTTCG, the switch fluorescence ratio was 1.01.
TGATTTCTCA gave a switch fluorescence ratio of 1.02.
In the case of TGATTTGATG, the switch fluorescence ratio is reported as 0.979.
TGATTTTTAA was tested, and the switch fluorescence ratio was 0.976.
Sequence TGCAAAGTCA has a switch fluorescence ratio of 1.04.
In the case of TGCAACGTCA, the switch fluorescence ratio is reported as 1.07.
For TGCAACTGG, the switch fluorescence ratio was 1.09.
TGCAACTGGT was tested, and the switch fluorescence ratio was 1.12.
Work on TGCAAGACGG yielded a switch fluorescence ratio of 1.44.
Sequence TGCAAGGAGG has a switch fluorescence ratio of 0.978.
With TGCAAGGTAT the switch fluorescence ratio was 1.
Sequence TGCAAGTCCG has a switch fluorescence ratio of 1.02.
With TGCAATAGCC the switch fluorescence ratio was 1.69.
Work on TGCAATTTAA yielded a switch fluorescence ratio of 1.01.
Sequence TGCAATTTG has a switch fluorescence ratio of 2.05.
Sequence TGCACGGGGA has a switch fluorescence ratio of 1.06.
TGCACGGTTC was tested, and the switch fluorescence ratio was 0.986.
TGCACTTACT was tested, and the switch fluorescence ratio was 1.28.
With TGCAGATGCG the switch fluorescence ratio was 1.02.
TGCAGCAACT gave a switch fluorescence ratio of 1.69.
In the case of TGCAGCGCTT, the switch fluorescence ratio is reported as 1.01.
In the case of TGCAGCGTAA, the switch fluorescence ratio is reported as 0.991.
TGCAGCTGGG showed a switch fluorescence ratio of 0.98.
With TGCAGCTGTT the switch fluorescence ratio was 0.989.
TGCAGGAGAG showed a switch fluorescence ratio of 1.03.
In the case of TGCAGGCAGT, the switch fluorescence ratio is reported as 0.994.
Work on TGCAGTGTT yielded a switch fluorescence ratio of 1.01.
TGCAGTTAGG gave a switch fluorescence ratio of 1.02.
TGCATCAGGG gave a switch fluorescence ratio of 1.02.
In the case of TGCATCGATC, the switch fluorescence ratio is reported as 1.
TGCATGAACA gave a switch fluorescence ratio of 1.06.
Work on TGCATGCT yielded a switch fluorescence ratio of 0.985.
Work on TGCATGGGGA yielded a switch fluorescence ratio of 1.17.
In the case of TGCATTTATA, the switch fluorescence ratio is reported as 0.998.
For TGCATTTGTA, the switch fluorescence ratio was 1.01.
With TGCATTTTAG the switch fluorescence ratio was 1.01.
TGCCAACCAG showed a switch fluorescence ratio of 1.06.
TGCCACTATA was tested, and the switch fluorescence ratio was 1.06.
Work on TGCCACTTTA yielded a switch fluorescence ratio of 1.09.
TGCCCATGG showed a switch fluorescence ratio of 1.03.
For TGCCCCCACG, the switch fluorescence ratio was 0.998.
TGCCCTGACG was tested, and the switch fluorescence ratio was 1.08.
Work on TGCCCTTTGT yielded a switch fluorescence ratio of 0.999.
Sequence TGCCGCTGCG has a switch fluorescence ratio of 1.08.
TGCCGGATGA gave a switch fluorescence ratio of 0.979.
